# Measurements published in PubChem BioAssay AID463173 (ICCB-Longwood Screening Facility, Harvard Medical School, 2010).
# Hit rate of the full screen: of about 52,000 compounds, about 1,700 (3.3%) were called active. Rule as the data show it: active = survival mostly below about 52% (no sharp cut-off); inactive = mostly above about 56%. The list shows a part of the results.
# System: Wild type
# Experiment: S. aureus survival, RN4220 and DeltatarO strains – OD600, teichoic acid synthesis inhibitors, primary screen (AID 463173)
# Conditions: S. aureus RN4220 wild type/DeltatarO growth, OD600, 18 h, hits give low values, screened at 18.75 µg/mL (by protocol)
row,SMILES,survival
1,CCc1nc2ccc(C(=O)N3CCN(c4cccc(C)c4C)CC3)cc2nc1CC,inactive: 71%
2,Cc1ccc(-c2nc3c4ccccc4[nH]c(=O)n3n2)cc1,inactive: 64%
3,CCN(C(=O)/C=C/c1cc(OC)c(OC)c(OC)c1)C1CCCCC1,inactive: 107%
4,O=C(c1ccc(CSc2nc3ccncc3n2Cc2ccc(F)cc2)cc1)N1CCCCCC1,inactive: 77%
5,COCCCNC(=O)c1cc2c(=O)oc3ccc(C)cc3c2s1,inactive: 79%
6,CCOc1ccc(-c2cc(OC(=O)c3ccc(OC)cc3)c3c(C)oc(C)c3c(=O)c2)cc1,inactive: 70%
7,COc1cc2nc(C3CCC3)n(NC(=O)COc3ccccc3)c(=O)c2cc1OC,inactive: 105%
8,O=C1CC(c2cccc(O)c2)c2c(nc(SCc3ccccc3F)[nH]c2=O)N1 (centres undefined),inactive: 107%
9,CCOc1ccc(C(=O)N(Cc2sccc2C)C2CCS(=O)(=O)C2)cc1 (centres undefined),inactive: 94%
10,CN(C)C(=O)CN1CCC(N2CCCCC2)CC1,inactive: 99%
11,CCOc1ccccc1CNC(=O)c1cc2n(n1)CCCN(Cc1ccc(C)cc1)C2=O,inactive: 88%
12,CCc1ccccc1NC(=O)Nc1ccc2c(c1)N(CC)C(=O)c1ccccc1S2,inactive: 63%
13,CCOc1ccc(NC(=O)CSc2nc(C)c(C(=O)Nc3ccccc3)c(-c3ccc(Cl)cc3)c2C#N)cc1,inactive: 94%
14,CCc1cccc(-n2c(C)nc3c(cnn3-c3ccc(C)c(C)c3)c2=O)c1,active: 2%
15,O=C(Nc1ccc(OC(F)(F)F)cc1)c1nc2ccccc2nc1N1CCCCC1,inactive: 138%
16,COc1cc(OC)c(NC2(c3ccccc3)C(=O)c3ccccc3C2=O)cc1Cl,inactive: 65%
17,CCn1c2ccccc2c2cc(CN3CCN(Cc4ccccc4Cl)CC3)ccc21,active: 1%
18,COc1cccc(NC(=O)CSc2nc3cc(OC)c(OC)cc3c3nc(-c4ccccc4)nn23)c1,inactive: 68%
19,CCCCc1nn2c(=O)cc(COC(=O)c3cccc(NC(=O)CCc4ccccc4)c3)nc2s1,inactive: 81%
20,CCOC(=O)c1ccc(NC(=O)/C(C#N)=C/c2ccc(OC)cc2)cc1,inactive: 79%
21,S=c1nc(CNc2ccccc2)[nH][nH]1,inactive: 95%
22,O=C(CSc1nccc(=O)[nH]1)Nc1cccc2ccccc12,inactive: 105%
23,CCc1ccc(-n2c(=O)c3c(C)c(C)sc3n(CC(=O)NCc3ccc(C)cc3)c2=O)cc1,inactive: 138%

row,SMILES,survival
1,O=S(=O)(NCc1nc2cccnc2n1Cc1ccccc1)c1ccc2c(c1)CCCC2,inactive: 80%
2,N#C/C(=C/c1ccc(Cl)cc1)c1nc(-c2ccc(Br)cc2)cs1,inactive: 83%
3,CCCN(CCC)C(=O)Cn1c(=O)n(-c2ccccc2)c(=O)c2c3c(sc21)CCCC3,inactive: 82%
4,COc1cc(/C=C(\C#N)c2nc3ccccc3[nH]2)cc(Cl)c1OCc1ccccc1Cl,inactive: 76%
5,Cc1ccc(CSc2oc(-c3ccco3)nc2S(=O)(=O)c2ccc(C)cc2)cc1,inactive: 62%
6,COc1cc2c(cc1OC)C(Cc1ccc(O)cc1)N(C)CC2 (centres undefined),inactive: 99%
7,Cc1[nH]c2ccc(-c3nnc(SCCC#N)n3C)cc2c1C,inactive: 113%
8,O=C(CCC1N=C2c3ccccc3N=C(SCc3ccc(Cl)cc3)N2C1=O)NCCc1ccccc1 (centres undefined),inactive: 93%
9,Cc1ccc(-c2cc(-c3ccc4c(c3)OCO4)c(C#N)c(N)n2)cc1,inactive: 98%
10,O=C(NC1CSC/C1=N\O)c1ccccc1 (centres undefined),inactive: 91%
11,CS(=O)(=O)c1ccc2nc(NC(=O)c3ccccc3)sc2c1,inactive: 111%
12,COc1cc2nc(SCC(=O)Nc3c(C)cc(C)cc3C)n3nc(CCn4c(C)nc5ccccc54)nc3c2cc1OC,inactive: 91%
13,CCOC(=O)c1c(S(=O)(=O)NCC(=O)N2CCN(c3ccccc3)CC2)c(C)n(C)c1C,inactive: 112%
14,Fc1ccc(C(NCCc2ccc(Cl)cc2)c2nnc(-c3ccccc3)o2)c(Cl)c1 (centres undefined),active: 3%
15,COc1ccccc1CNC(=O)CCn1c(=O)c2ccccc2n(CC(=O)Nc2ccc(C)cc2Cl)c1=O,inactive: 110%
16,Cc1c(NC(=O)Nc2ccc(Br)cc2F)sc2nc3n(c(=O)c12)CCC(C)CC3 (centres undefined),inactive: 92%
17,CCCn1c2ccccc2c2cnn(CC(=O)N(C)c3ccccc3CC)c(=O)c21,inactive: 72%
18,CC(=O)NCC(c1ccc2c(c1)OCO2)N1CCN(c2ccccc2)CC1 (centres undefined),inactive: 69%
19,CC(=O)Nc1ccc(-c2nc3cc(Cl)ccc3o2)cc1,inactive: 94%
20,CCc1cccc(C)c1NC(=O)c1cc(S(=O)(=O)NCc2ccccc2Cl)ccc1F,inactive: 113%
21,CCCSCCCNC(=O)C1CCCN(c2nn3cc(-c4ccc(OC)cc4)nc3s2)C1 (centres undefined),inactive: 72%
22,Cn1c(=O)c(=O)n(C)c2cc(NC(=O)c3cccc(F)c3)c(Cl)cc21,inactive: 71%
23,CN(C)CCCN(C(=O)c1ccc(Br)s1)c1nc2ccc(F)cc2s1,active: -6%

row,SMILES,survival
1,Cc1ccc2cccc(NC(=O)COc3cc(C)c(Cl)c(C)c3)c2n1,inactive: 82%
2,COc1ccc(N(CC(=O)NCc2ccccc2Cl)S(=O)(=O)c2c(C)nn(C)c2C)cc1,inactive: 76%
3,COc1ccc(CCNC(=O)Cn2c(=O)nc(-c3ccccc3)c3ccccc32)cc1OC,inactive: 126%
4,CCOc1ccccc1CNC(=O)CCCn1ncn2c(cc3occc32)c1=O,inactive: 71%
5,CCOc1ccc(C(=O)c2cn(CC(=O)Nc3ccc(F)cc3)c3cc4c(cc3c2=O)OCO4)cc1,inactive: 140%
6,Cc1nn(CC(=O)Nc2ccccc2C(F)(F)F)c(=O)c2cccn12,inactive: 89%
7,Cc1ccc(CCNC(=O)CCn2nc(-c3ccccc3)ccc2=O)cc1,inactive: 89%
8,CCCCN(CC)CCNC(=O)CN1C(=O)COc2ccc(S(=O)(=O)N3CCCC3)cc21,inactive: 82%
9,CCOc1ccc(C(=O)Nc2c(C(=O)c3ccc(OC)cc3)oc3ccccc23)cc1,inactive: 64%
10,COc1ccc(NC(=O)c2ccc3nc(CCc4ccccc4)oc3c2)c(OC)c1,inactive: 121%
11,Cc1ccccc1NC(=O)N1CCc2c(sc3c2CCCC3)C1c1ccccc1 (centres undefined),inactive: 99%
12,O=C(NCCc1ccccc1)c1ccc(Cn2c(SCc3cccc(F)c3)nc3cccnc32)cc1,inactive: 82%
13,COCCNC(=O)CCc1c(C)nc2c(-c3ccc(F)cc3)c(C)nn2c1C,inactive: 85%
14,COc1cc(C(CC(=O)Nc2ccc(F)cc2F)N2Cc3ccccc3C2=O)cc(OC)c1OC (centres undefined),inactive: 78%
15,COc1ccc(CCNC(=O)CCCCn2c(=O)c3ccccc3n(Cc3ccccc3C)c2=O)cc1OC,inactive: 135%
16,CCS(=O)(=O)c1ncc(N(Cc2ccccc2)Cc2ccco2)c(C(=O)Nc2ccc(C)c(C)c2)n1,inactive: 85%
17,CCOc1ccc(NC(=O)c2ccc3c(=O)n4nc(Nc5ccccc5C)sc4nc3c2)cc1,inactive: 132%
18,CCc1ccccc1NC(=O)Cn1c(=O)n(-c2ccc(C)cc2)c(=O)c2c1c1cc(C)ccc1n2C,inactive: 97%
19,COc1ccc(OC)c(NC(=O)c2cc3cc(C)ccc3n2C)c1,inactive: 75%
20,O=C(Cn1c(=O)oc2cc(Cl)ccc21)Nc1cccc(C(F)(F)F)c1,inactive: 85%
21,Cc1nc2ncnn2c(C)c1CCC(=O)N1CCN(c2ccccc2)CC1,inactive: 76%
22,CCC(=O)Nc1ccc(CC)cc1-c1nc2ccccc2n(CC(=O)Nc2cccc(Cl)c2)c1=O,inactive: 64%
23,COc1cccc(C(=O)N2CCN(C3CCC(c4ccccc4)CC3)CC2)c1OC (centres undefined),inactive: 108%

row,SMILES,survival
1,CCCCCn1cc2c(c1-c1ccc(Br)cc1)c(=O)n(C)c(=O)n2C,inactive: 89%
2,Cc1ccc(-c2cc(C(F)F)n3ncc(C(=O)Nc4cn(C)nc4C)c3n2)cc1,inactive: 112%
3,Cc1ccccc1CSc1nc2cc(C(=O)NC3CCCC3)ccc2c(=O)n1Cc1ccccc1,inactive: 94%
4,Cc1cc2c(cc1C)NC(CC(=O)Nc1ccccc1)C(=O)N2 (centres undefined),inactive: 83%
5,Cc1ccc(O)c(NC(=O)c2ccc(Br)c(S(=O)(=O)N3CCCCC3)c2)c1,inactive: 69%
6,CCN(Cc1ccccc1)C(=O)Cn1cc(S(=O)(=O)Cc2cccc(Cl)c2)c2ccccc21,inactive: 75%
7,O=C(CCCn1c(=O)c2cccn2c2ccc(F)cc21)NCc1ccc(Cl)cc1,inactive: 57%
8,CCc1ccc(NC(=O)C(=O)NCC(c2cccnc2)N2CCN(Cc3ccccc3)CC2)cc1 (centres undefined),inactive: 87%
9,COC(=O)CC1Oc2ccccc2-n2cc(-c3ccccc3)nc21 (centres undefined),inactive: 74%
10,CC1CCN(C(=O)CSc2c(C(C)C)cnc3c2c(=O)n(C)c(=O)n3C)CC1,inactive: 120%
11,Cc1ccc(-n2nc(CO)c(C(=O)NC(C)CCCc3ccccc3)n2)cc1C (centres undefined),inactive: 112%
12,CCOc1ccc(CNS(=O)(=O)c2ccc3[nH]c(=O)ccc3c2)cc1,inactive: 80%
13,CCCCOc1ccc(CNC(=O)c2ccc(NC(=O)N3CCCCc4ccccc43)cc2)cc1,inactive: 65%
14,CC(=O)Nc1nonc1-c1nnc(SCC(=O)Nc2ccccc2)n1-c1ccccc1,inactive: 51%
15,CCC(=O)Nc1ccc2nc(SCCOc3ccccc3)sc2c1,inactive: 97%
16,CCOc1ccccc1NC(=O)CCc1c(C)nn(-c2ccc(N3CCOCC3)nn2)c1C,inactive: 74%
17,Cc1ccc(NC(=O)CSc2ncn[nH]2)cc1C,inactive: 73%
18,Cc1c(Cl)cccc1NC(=O)c1noc2c1CCCC2,inactive: 74%
19,COC(=O)c1ccc(-n2c(CCC(=O)O)ccc2-c2ccc(C)cc2)cc1,inactive: 72%
20,CCOC(=O)Cn1c(=O)n(CC2CCCO2)c2nc(-c3cccc(C)c3)nc(C(N)=O)c21 (centres undefined),inactive: 55%
